Laboratory results published in patent US12466849B2, “Anti-viral and anti-tumoral compounds” (YEDA RESEARCH AND DEVELOPMENT CO. LTD, priority 2020, dated 2025).

Key:
[1] = target: T1, PrimPol (Homo sapiens, UniProt Q96LW4)
T1 sequence (Q96LW4 2-559): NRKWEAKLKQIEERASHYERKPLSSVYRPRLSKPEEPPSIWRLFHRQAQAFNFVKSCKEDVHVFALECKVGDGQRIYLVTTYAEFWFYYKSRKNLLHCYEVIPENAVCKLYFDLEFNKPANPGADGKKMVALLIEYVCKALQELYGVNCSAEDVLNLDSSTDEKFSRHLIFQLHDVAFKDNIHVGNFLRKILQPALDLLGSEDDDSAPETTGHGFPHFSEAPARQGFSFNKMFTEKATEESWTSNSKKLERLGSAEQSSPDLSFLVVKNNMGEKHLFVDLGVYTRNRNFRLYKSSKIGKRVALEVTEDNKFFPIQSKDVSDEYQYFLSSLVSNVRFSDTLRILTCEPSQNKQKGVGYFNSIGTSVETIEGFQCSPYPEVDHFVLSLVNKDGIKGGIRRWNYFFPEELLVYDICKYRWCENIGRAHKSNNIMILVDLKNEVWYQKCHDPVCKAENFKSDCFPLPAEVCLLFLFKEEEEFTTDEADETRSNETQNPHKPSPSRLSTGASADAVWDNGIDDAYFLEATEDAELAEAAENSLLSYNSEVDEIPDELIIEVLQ

[2] = target: mitochondrial RNA polymerase (POLRMT) (Homo sapiens, UniProt O00411)
Sequence of mitochondrial RNA polymerase (POLRMT) (O00411 142-1230): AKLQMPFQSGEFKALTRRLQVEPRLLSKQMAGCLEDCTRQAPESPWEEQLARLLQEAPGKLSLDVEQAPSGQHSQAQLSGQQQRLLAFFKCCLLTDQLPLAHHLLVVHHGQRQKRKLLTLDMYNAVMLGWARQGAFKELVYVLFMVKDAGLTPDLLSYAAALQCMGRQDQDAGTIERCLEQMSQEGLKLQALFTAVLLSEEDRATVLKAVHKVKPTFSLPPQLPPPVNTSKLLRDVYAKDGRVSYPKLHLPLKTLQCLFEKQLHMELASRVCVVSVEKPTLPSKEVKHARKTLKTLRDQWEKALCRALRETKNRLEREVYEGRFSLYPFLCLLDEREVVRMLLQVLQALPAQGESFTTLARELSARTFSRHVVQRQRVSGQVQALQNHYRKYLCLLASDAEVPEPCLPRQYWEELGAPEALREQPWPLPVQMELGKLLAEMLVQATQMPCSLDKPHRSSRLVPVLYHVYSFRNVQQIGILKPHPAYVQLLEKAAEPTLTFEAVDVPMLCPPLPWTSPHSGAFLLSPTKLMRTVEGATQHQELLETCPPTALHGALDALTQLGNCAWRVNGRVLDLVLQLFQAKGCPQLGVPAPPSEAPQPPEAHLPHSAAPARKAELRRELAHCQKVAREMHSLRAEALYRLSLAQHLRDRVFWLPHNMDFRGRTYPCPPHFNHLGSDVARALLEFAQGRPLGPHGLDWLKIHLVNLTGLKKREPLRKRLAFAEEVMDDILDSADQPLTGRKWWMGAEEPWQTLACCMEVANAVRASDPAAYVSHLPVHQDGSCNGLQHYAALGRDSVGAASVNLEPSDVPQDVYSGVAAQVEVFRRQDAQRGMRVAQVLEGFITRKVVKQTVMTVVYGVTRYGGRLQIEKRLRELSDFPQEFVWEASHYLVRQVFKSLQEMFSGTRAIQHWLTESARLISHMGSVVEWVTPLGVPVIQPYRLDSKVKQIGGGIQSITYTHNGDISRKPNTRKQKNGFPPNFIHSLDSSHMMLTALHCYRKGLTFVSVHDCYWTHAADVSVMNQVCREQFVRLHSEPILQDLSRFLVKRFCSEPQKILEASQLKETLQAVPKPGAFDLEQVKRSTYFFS

Compound | substrate for PrimPol (in words) [1] | substrate for POLRMT (in words) [2]
N#C[C@@]1(c2ccc3c(N)ncnn23)OC(COP(=O)(O)OP(=O)(O)OP(=O)(O)O)=C[C@H]1O [ddhREM-TP, ddhRemdesivir] | poor substrates | poor substrates
O=c1ccn(C2OC(COP(=O)(O)OP(=O)(O)OP(=O)(O)O)=CC2O)c(=O)[nH]1 (stereo not shown) [ddhUTP, 3′-deoxy-3,4-didehydro-UTP] | poor substrates | poor substrates
